# Measured values: PubChem BioAssay AID1346428 (National Center for Advancing Translational Sciences (NCATS), 2018)
# About 1,200 (2.5%) of roughly 48,000 compounds were called active. Inconclusive results (about 2%) are left out.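 Rule for the calls: active = activation of at least 60% and not above a set upper limit (about 1 call in 100 departs from these limits); inconclusive = activation of 40% to 60%, or above that upper limit; inactive = activation under 40%.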 This is one part of the list.
# Biological target: Probable G-protein coupled receptor 32 (Homo sapiens) (UniProt O75388)
# Assay: qHTS for Agonists of Human Resolvin D1 Receptor DRV1; note: 0% is about no effect
# Settings: CHO-K1 GPR32 beta-arrestin PathHunter luminescence, 90 min; at 76.9 µM; hits give high values; zero percent set by DMSO-only wells
# In short: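 Cells are plated overnight, treated with compounds in DMSO for 90 minutes at 37 °C, and developed with PathHunter detection reagent for 1 hour before luminescence is read; signal reflects beta-arrestin binding to GPR32 in engineered CHO-K1 cells.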
# Chain of UniProt O75388 (O75388 whole entry, looked up): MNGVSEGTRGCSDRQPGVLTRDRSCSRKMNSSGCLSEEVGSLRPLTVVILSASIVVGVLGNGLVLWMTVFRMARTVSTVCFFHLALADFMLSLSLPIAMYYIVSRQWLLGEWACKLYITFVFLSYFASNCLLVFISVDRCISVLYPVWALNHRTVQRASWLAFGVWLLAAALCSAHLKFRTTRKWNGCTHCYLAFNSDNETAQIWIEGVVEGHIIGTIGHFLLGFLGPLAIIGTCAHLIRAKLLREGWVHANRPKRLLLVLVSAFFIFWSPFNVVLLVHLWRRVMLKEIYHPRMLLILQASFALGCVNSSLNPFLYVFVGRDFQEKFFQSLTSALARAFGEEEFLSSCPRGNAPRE
row,Structure (SMILES),activation
1,Cc1cccc(C(=O)NCC(=O)OCc2cc(=O)n3nc(CC(C)C)sc3n2)c1,inactive: -13.7%
2,CCC(C(=O)NCc1ccco1)n1nc(C)c2c(C)n(-c3ccc(C)cc3)nc2c1=O (centres undefined),inactive: 16.5%
3,Cn1c(=O)c2c(-c3cccc(Br)c3)n(C(C)(C)CO)cc2n(C)c1=O,inactive: 19.7%
4,Fc1ccc(Nc2ncnc3onc(-c4cccc(Cl)c4)c23)c(F)c1,inactive: 8.5%
5,COc1cccc2c1cc1c(=O)n(CC(=O)N3CCN(c4ccc(Cl)cc4)CC3)nc(C)n12,inactive: -1.44%
6,Cc1ccc(S(=O)(=O)NC2(C(F)(F)F)NC(=O)N(CCc3ccccc3)C2=O)cc1 (centres undefined),inactive: 20.8%
7,COc1ccccc1NC(=O)Cn1c(SCC(=O)N(C)c2ccccc2)nc2ccccc21,inactive: -11.8%
8,Cc1cc2nc(-c3ccc(OCc4ccccc4Cl)cc3)cc(C(F)(F)F)n2n1,inactive: 5.15%
9,O=C1N(Cc2ccccc2)c2ccc(Cl)cc2C1(O)c1c[nH]c2ccccc12 (centres undefined),active: 116%
10,CCOc1ccccc1NC(=O)CSc1nnc2[nH]c(=O)cc(-c3ccccc3)n12,inactive: -2.08%
11,Cc1cc(C)cc(NC(=O)Cn2cc(S(=O)(=O)NC(C)(C)C)c(S(=O)(=O)NC(C)(C)C)c2)c1,inactive: -6.32%
12,O=C(NCCn1cc(SCc2ccccc2Cl)c2ccccc21)c1cccs1,inactive: 31.8%
13,O=C(Nc1ccccc1Cl)C1CCN(c2nc3ccccc3nc2C(F)(F)F)CC1,inactive: -19.9%
14,COc1cc(OC)c(/C=C2/C(=O)Nc3ccccc32)c(OC)c1,inactive: 2.24%
15,COc1ccc(-c2nc3c4ccccc4n(CC(=O)N4CCN(c5ccccc5OC)CC4)c(=O)n3n2)cc1,inactive: -7.81%
16,CCN(CC)CCCNC(=O)CN1C(=O)CCn2nc(-c3cn(C)c4ccccc34)cc21,inactive: -8.41%
17,COc1ccc(-c2nc(CSCC(=O)N3CCN(c4cccc(C)c4C)CC3)c(C)o2)cc1OC,inactive: 4.62%
18,COc1cccc(-n2c(=O)c3c4c(sc3n(Cc3ccc(C)cc3)c2=O)CCCC4)c1,inactive: -6.35%
19,Cc1ccc2nc(-c3ccccc3F)c(Nc3ccc(Cl)cc3)n2c1,inactive: -13.3%
20,COc1ccc(CCNC(=O)c2ccc3c(c2)c(C)c(C)n3Cc2ccc(F)cc2)c(OC)c1OC,inactive: -13.8%
21,Cc1nnc(NC(=O)CSCc2cc(=O)c3cc(Cl)ccc3[nH]2)s1,inactive: -59.2%

row,Structure (SMILES),activation
1,O=S(=O)(NCc1ccc(F)cc1)c1ccc(-c2cnc(C3CC3)o2)cc1,inactive: -19.9%
2,COc1cccc(C(=O)Nc2ccccc2C(=O)OCc2cc(=O)n3nc(C4CC4)sc3n2)c1,inactive: -6.24%
3,Cc1c(C(=O)N2CCCC2)oc2c1-c1nn(CC(=O)NCCCOC(C)C)cc1CC2,inactive: 12.4%
4,Cc1ccc(C(=O)c2cn(CC(=O)NC3CCCCC3)c3nc(C)ccc3c2=O)cc1,inactive: 9.3%
5,COc1ccccc1-n1ncc2c(=O)[nH]c(SCC(=O)Nc3ccc(Cl)cc3)nc21,inactive: -4.67%
6,Cc1ccc(CNC(=O)c2cccn2-c2nnc(N3CCCCC3)s2)cc1,inactive: -20.5%
7,COc1cc(-c2nc(Cn3nnc(C(=O)Nc4ccccc4)c3C)c(C)o2)cc(OC)c1OC,inactive: 8.5%
8,O=C(NC1CC(=O)N(c2cccc(F)c2)C1)C1CCCC1 (centres undefined),inactive: -5.91%
9,Cc1c(C)c2c(cc(C)c3c(-c4ccccc4)coc32)oc1=O,inactive: 4.54%
10,O=C(c1cccn1-c1nnc(N2CCCC2)s1)N1CCN(c2ccccc2)CC1,inactive: -5.37%
11,CN(C)CCN(Cc1ccccc1)S(=O)(=O)c1ccc2[nH]c(=O)ccc2c1,inactive: 3.02%
12,O=C(Nc1cc2c(cc1C(=O)c1ccccc1)OCCO2)c1ccc(Br)cc1,inactive: -6.98%
13,Cc1ccccc1-c1nc(SCC(=O)NCc2ccco2)c2c(=O)n(C)c(=O)n(C)c2n1,inactive: 30.2%
14,CCOC(=O)COc1ccc2c(C)c(CCN(CC)CC)c(=O)oc2c1Cl,inactive: -3.41%
15,COc1ccc2oc(=O)c(-c3csc(-c4ccc(Br)cc4)n3)cc2c1,inactive: 7.82%
16,COc1cccc(-n2cc(C(=O)NCCc3ccc(C)cc3)c3ccccc3c2=O)c1,inactive: -29%
17,COc1ccc(NC(=O)c2sc3nc[nH]c(=O)c3c2C)cc1Cl,inactive: -0.825%
18,Cn1c(=O)n(-c2ccc3c(c2)OCO3)c2nc(-c3ccccc3)nc(C(N)=O)c21,inactive: -0.0169%
19,COc1ccc(C)cc1NC(=O)c1ccc2c(SCC(=O)O)c3c(nc2c1)CCCC3,inactive: -13.9%
20,CCOc1ccc(NC(=O)C2CC(=O)N(c3ccc(C(C)C)cc3)C2)cc1 (centres undefined),inactive: 42.1%
21,CCOC(=O)CC(NC(=O)Cn1nnc(-c2ccc(C(F)(F)F)cc2)n1)c1ccc(OC)cc1 (centres undefined),inactive: 35.8%

row,Structure (SMILES),activation
1,Cc1cc(C)cc(NC(=O)CSc2cc(C)[nH]c(=O)n2)c1,inactive: 11.9%
2,COc1cccc2c1cc1c(=O)n(CC(=O)N3CCN(c4cccc(C)c4)C(C)C3)nc(C)n12 (centres undefined),inactive: -5.74%
3,CCCC1=Nc2cc(C(=O)NC3CCCC3)ccc2Sc2ccc(C)cc21,inactive: -29.3%
4,COc1cc(CN(C(=O)COc2ccc(C)cc2)c2ccccn2)cc(OC)c1OC,inactive: -6.61%
5,CC(=O)Nc1ccc(-c2cc(C(=O)O)c3c(-c4ccccc4)[nH]nc3n2)cc1,inactive: -2.33%
6,CNCCC=C1c2ccccc2CCc2ccccc21,inactive: -9.17%
7,COc1ccc(C(=O)N2CCN(Cc3cc(=O)n4nc(-c5ccccc5C)sc4n3)CC2)cc1OC,inactive: 8.89%
8,Cc1cccc(NC(=O)C2CCN(S(=O)(=O)c3ccc(F)cc3)CC2)c1C,inactive: 24%
9,CCCCNC(=O)c1nn(-c2ccc(CC)cc2)nc1CO,inactive: -3.88%
10,CCCn1c(=O)sc2cc(NC(=O)COc3ccc(Cl)cc3)ccc21,inactive: 49.4%
11,CC1CCC(NC(=O)c2ccc3c(c2)N(Cc2cccc(Cl)c2)C(=O)c2ccccc2S3(=O)=O)CC1 (centres undefined),inactive: -21.1%
12,CCOC(=O)c1ccc(NS(=O)(=O)c2ccc3c(c2)n(C)c(=O)n3C)cc1,inactive: 20.4%
13,CCN(CC)CC(C)CNC(=O)c1cc(-c2ccc(Br)s2)nc2ccccc12 (centres undefined),inactive: 4.86%
14,COc1cccc(CN(C(=O)c2oc3cc(C)ccc3c2C)C2CCS(=O)(=O)C2)c1 (centres undefined),inactive: -30.1%
15,O=C(Nc1cc(-c2nc3ccccc3s2)ccc1Cl)c1cc2ccccc2o1,inactive: -7.52%
16,CN(Cc1ccccc1)C(=O)c1ccc2c(c1)N(Cc1ccccc1F)C(=O)c1ccccc1S2(=O)=O,inactive: -5.74%
17,COc1ccc(OC)c(NC(=O)Cn2cnc3ccc(S(=O)(=O)N4CCC(C)CC4)cc3c2=O)c1,inactive: -14.2%
18,COc1cc(/C=C/c2nc(C#N)c(N3CCCCCC3)o2)cc(OC)c1OC,inactive: -19.4%
19,O=S(=O)(Nc1ccccc1C(F)(F)F)c1ccc(N2CCCCS2(=O)=O)cc1,inactive: 5.83%
20,CCCOc1cccc(NC(=O)c2c(-c3ccccc3Cl)noc2C)c1,inactive: -13.5%
21,CN(C(=O)CSc1nc2ccc(NC(=O)COc3ccc(Cl)cc3)cc2s1)c1ccccc1,inactive: 17.2%

row,Structure (SMILES),activation
1,Cc1cccc(C)c1NC(=O)Cn1c(=O)n(Cc2ccccc2)c(=O)c2c(C)c(C(=O)N(C)C)sc21,inactive: -1.47%
2,CC(=O)N(Cc1cccnc1)c1nc2c(F)cc(F)cc2s1,inactive: -22.1%
3,Cc1ccc(-c2nc3sc(CCNS(=O)(=O)c4cc(F)ccc4F)c(C)n3n2)cc1,inactive: 13.2%
4,Cc1ccc(Cl)cc1-n1c(=O)cc(N2CCN(c3ccc(F)cc3)CC2)[nH]c1=O,inactive: -12%
5,Cc1cc(C)c2oc(C(=O)Nc3ccc(S(=O)(=O)N4CCCCC4)cc3)cc(=O)c2c1,inactive: -5.39%
6,Cn1c(=O)c2c(-c3ccc(Cl)cc3)n(Cc3ccccc3)cc2n(C)c1=O,inactive: 15.5%
7,COc1ccc(CNC(=O)CSc2nc3ccccc3nc2Cc2ccccc2)cc1,inactive: -3.05%
8,O=C(CSc1nccn1Cc1ccco1)Nc1ccc(F)cc1,inactive: -6.46%
9,CCOC(=O)c1cc(S(=O)(=O)Nc2ccc(C)cc2Cl)[nH]n1,inactive: -9.74%
10,COc1cccc(NC(=O)C2CCC(CNS(=O)(=O)c3ccc4c(c3)CC(C)N4C(C)=O)CC2)c1 (centres undefined),inactive: 18.5%
11,COc1ccc(S(=O)(=O)NCCc2cc3ccc(C)c(C)c3[nH]c2=O)cc1,inactive: 41.1%
12,COc1cccc(/C=C/c2nc(C#N)c(NCCN(C)C)o2)c1,inactive: -10.7%
13,COc1ccc(Cn2c(CCC(=O)NCc3cccc(Cl)c3)nc3cccnc32)cc1,inactive: -14.1%
14,CCOC(=O)c1[nH]c(C)c(CCC(=O)NCc2ccc(N(C)C)cc2)c1C,inactive: -23.3%
15,Cc1ccc(NC(=O)C2CCN(S(=O)(=O)c3c(C)noc3C)CC2)c(C)c1,inactive: -15%
16,COc1ccc(-c2csc3nc(-c4ccccc4C)oc(=O)c23)cc1OC,inactive: -0.175%
17,O=C(/C=C\c1ccc2c(c1)OCO2)NC1CC(=O)N(c2ccc(Cl)cc2)C1 (centres undefined),inactive: -1.79%
18,COc1ccc(C2(Nc3cccc(C(=O)O)c3C)C(=O)c3ccccc3C2=O)cc1,inactive: -3.37%
19,CC(=O)N1CCOc2cc(S(=O)(=O)NCc3ccc(C)cc3)c(Cl)cc21,inactive: 8.59%
20,CCSc1nc(-c2ccccc2OC)nc2c1Cc1c(CO)cnc(C)c1O2,inactive: 2.07%
21,CCOc1ccccc1NC(=O)c1cc(=O)c2ccc(C)cc2o1,inactive: 7.65%
